Experimental data reported in patent US20200181257A1 (Chugai, published 2020).
Substitutions are numbered along the chain they refer to. In names and notes the source's numbering stands. Blank lines part the entries; values can stand above or below the binder they belong to.

How the values were obtained:
Assay in all cases: SPR, antibody captured on Protein A
[1] = biological target: T1, human Fcγ receptor hFcgRIa (human, UniProt P12314 16-292, limits assumed)
T1 construct: Construct used in the SPR assay is not described; also called hFcγRIa; FcγI
T1 sequence (P12314 16-292 limits assumed): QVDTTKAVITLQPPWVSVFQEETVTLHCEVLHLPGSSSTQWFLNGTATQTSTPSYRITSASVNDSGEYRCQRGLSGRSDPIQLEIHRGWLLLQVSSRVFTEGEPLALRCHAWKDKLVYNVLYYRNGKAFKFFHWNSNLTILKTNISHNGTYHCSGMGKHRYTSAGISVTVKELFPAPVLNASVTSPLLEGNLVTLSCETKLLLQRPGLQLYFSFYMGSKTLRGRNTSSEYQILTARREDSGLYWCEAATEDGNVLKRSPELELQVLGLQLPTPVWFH
Experimental: (§1) Furthermore, binding ability to hFcgRs was measured by the method described in Reference Example 3.
(§2) Interactions between antibodies and hFcgRs (hFcgRIa, hFcgRIIa(R), hFcgRIIa(H), hFcgRIIb, hFcgRIIIa(F), and hFcgRIIIa(V)) were analyzed using Biacore T100 (GE Healthcare). HBS-EP+(GE Healthcare) was used for the running buffer, and the measurement temperature was set at 25° C. Protein A (Invitrogen) was immobilized by the amino coupling method, and an antibody of interest was captured thereon. Then, hFcγR solutions diluted using the running buffer were injected to allow interaction with the captured antibody at a flow rate of 30 μL/min for five minutes for hFcγRIa, and at a flow rate of 5 μL/min for one minute for the other hFcγRs. […] Since the hFcγR binding level depends on the amount of captured antibodies, the FcgR-binding levels were corrected so that the capture level of each antibody would be 200 RU (resonance unit) for hFcgRIa and 1000 RU (resonance unit) for the other hFcgRs. The captured antibodies were washed by allowing 10 mM glycine-HCl (pH 1.5) to react for 30 seconds at a flow rate of 30 μL/min to recycle the chip for reuse.

[2] = biological target: T2, human Fcγ receptor hFcgRIIa (R) (human, UniProt P12318 36-217)
T2 construct: also called FcγRIIa (type R); FcγIIA
T2 chain: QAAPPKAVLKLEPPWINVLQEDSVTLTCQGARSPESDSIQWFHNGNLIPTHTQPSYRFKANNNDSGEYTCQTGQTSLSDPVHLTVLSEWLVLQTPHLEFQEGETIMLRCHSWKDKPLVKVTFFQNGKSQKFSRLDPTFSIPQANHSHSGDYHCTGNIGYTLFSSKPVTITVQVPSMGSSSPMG
Experimental: as §1, §2

[3] = biological target: T3, human Fcγ receptor hFcgRIIa (H) (human, UniProt P12318 36-217)
T3 construct: also called FcγRIIa (type H); FcγIIA
T3 sequence: T2 chain with R133H
Experimental: as §1, §2

[4] = biological target: T4, human Fcγ receptor hFcgRIIb (human, UniProt P31994 43-217, limits assumed)
T4 construct: Construct used in the SPR assay is not described; also called FcγRIIb; FcγIIB
T4 sequence: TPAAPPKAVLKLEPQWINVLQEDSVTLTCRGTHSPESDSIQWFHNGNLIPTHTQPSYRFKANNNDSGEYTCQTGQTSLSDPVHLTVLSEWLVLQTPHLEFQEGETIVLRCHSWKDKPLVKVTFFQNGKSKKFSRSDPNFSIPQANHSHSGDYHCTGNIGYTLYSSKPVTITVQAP
Experimental: as §1, §2

[5] = biological target: T5, human Fcγ receptor hFcgRIIIa (V) (human, UniProt P08637 in part)
T5 construct: also called FcγRIIIa allotype V158; FcγIIIA
T5 sequence (P08637 other isoform, or with tags, fused parts or gaps limits assumed): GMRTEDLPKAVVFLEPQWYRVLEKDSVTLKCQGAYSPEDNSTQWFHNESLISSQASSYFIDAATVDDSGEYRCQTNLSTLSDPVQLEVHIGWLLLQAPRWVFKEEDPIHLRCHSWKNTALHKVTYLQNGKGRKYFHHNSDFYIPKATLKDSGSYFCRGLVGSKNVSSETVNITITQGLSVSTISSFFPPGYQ
Experimental: as §1, §2

binding relative to G1 (=100) [1]: 101 | binding relative to G1 (=100) [2]: 97 | binding relative to G1 (=100) [3]: 98.1 | binding relative to G1 (=100) [4]: 97.8 | binding relative to G1 (=100) [5]: 86.2
B1: TS57 (antibody)
heavy: QVQLQESGPGLVRPSQTLSLTCTVSGYSITSDHAWSWVRQPPGRGLEWIGYISYSGITTYNPSLKSRVTMLRDTSKNQFSLRLSSVTAADTAVYYCARSLARTTAMDYWGQGSLVTVSS[human IgG1 constant region with L309R (EU numbers) not shown]
light: DIQMTQSPSSLSASVGDRVTITCRASQDISSYLNWYQQKPGKAPKLLIYYTSRLHSGVPSRFSGSGSGTDFTFTISSLQPEDIATYYCQQGNTLPYTFGQGTKVEIKRTVAAPSVFIFPPSDEQLKSGTASVVCLLNNFYPREAKVQWKVDNALQSGNSQESVTEQDSKDSTYSLSSTLTLSKADYEKHKVYACEVTHQGLSSPVTKSFNRGEC
notes: anti-IL6R IgG1, G1d with L309R (EU)

binding relative to G1 (=100) [1]: 105 | binding relative to G1 (=100) [2]: 103 | binding relative to G1 (=100) [3]: 105 | binding relative to G1 (=100) [4]: 99.7 | binding relative to G1 (=100) [5]: 94.2
B2: TS60 (antibody)
heavy: QVQLQESGPGLVRPSQTLSLTCTVSGYSITSDHAWSWVRQPPGRGLEWIGYISYSGITTYNPSLKSRVTMLRDTSKNQFSLRLSSVTAADTAVYYCARSLARTTAMDYWGQGSLVTVSS[human IgG1 constant region with K360H (EU numbers) not shown]
light: B1 light
notes: anti-IL6R IgG1, G1d with K360H (EU)

binding relative to G1 (=100) [1]: 98.6 | binding relative to G1 (=100) [2]: 102 | binding relative to G1 (=100) [3]: 102 | binding relative to G1 (=100) [4]: 108 | binding relative to G1 (=100) [5]: 90.3
B3: TS63 (antibody)
heavy: QVQLQESGPGLVRPSQTLSLTCTVSGYSITSDHAWSWVRQPPGRGLEWIGYISYSGITTYNPSLKSRVTMLRDTSKNQFSLRLSSVTAADTAVYYCARSLARTTAMDYWGQGSLVTVSS[human IgG1 constant region with M428H (EU numbers) not shown]
light: B1 light
notes: anti-IL6R IgG1, G1d with M428H (EU)

binding relative to G1 (=100) [1]: 101 | binding relative to G1 (=100) [2]: 99.7 | binding relative to G1 (=100) [3]: 102 | binding relative to G1 (=100) [4]: 95.6 | binding relative to G1 (=100) [5]: 91.7
B4: TS62 (antibody)
heavy: QVQLQESGPGLVRPSQTLSLTCTVSGYSITSDHAWSWVRQPPGRGLEWIGYISYSGITTYNPSLKSRVTMLRDTSKNQFSLRLSSVTAADTAVYYCARSLARTTAMDYWGQGSLVTVSS[human IgG1 constant region with P387E (EU numbers) not shown]
light: B1 light
notes: anti-IL6R IgG1, G1d with P387E (EU)
